# Several values for one entry are separate records, joined by “and”; a condition that tells them apart may be missing. Identical values can stand only once. Among all 390,000 compounds or so, about 17,000 (4.4%) were called active. The inconclusive results got no clear call from the source; some entries with a clear call stand among them for comparison. The call rests on the fitted dose curve; in most records, active means well fitted inhibition curve with a large enough effect; inconclusive means small, poorly fitted or top-dose-only effect; inactive means no such curve, though single readings can be large or run the other way. Where the call is inconclusive, the potency comes from a doubtful curve fit.
# Biological target: Lysine-specific demethylase 4A (Homo sapiens) (UniProt O75164)
# Test: qHTS Assay for Inhibitors of JMJD2A-Tudor Domain; further: nearly all actives have a fitted effect of over 50% in size
# Conditions: AlphaScreen JMJD2A-Tudor / H3K4me3 peptide binding; activity change, negative = inhibition: at 114 µM (top of the series)
# On the % scale 0 is the no-effect control and ±100 the full control effect; potency means the concentration at half of the fitted maximal effect; tags describe the fitted curve by direction and shape.
# Chain of UniProt O75164 (O75164 whole entry, looked up, the tested form may be a part): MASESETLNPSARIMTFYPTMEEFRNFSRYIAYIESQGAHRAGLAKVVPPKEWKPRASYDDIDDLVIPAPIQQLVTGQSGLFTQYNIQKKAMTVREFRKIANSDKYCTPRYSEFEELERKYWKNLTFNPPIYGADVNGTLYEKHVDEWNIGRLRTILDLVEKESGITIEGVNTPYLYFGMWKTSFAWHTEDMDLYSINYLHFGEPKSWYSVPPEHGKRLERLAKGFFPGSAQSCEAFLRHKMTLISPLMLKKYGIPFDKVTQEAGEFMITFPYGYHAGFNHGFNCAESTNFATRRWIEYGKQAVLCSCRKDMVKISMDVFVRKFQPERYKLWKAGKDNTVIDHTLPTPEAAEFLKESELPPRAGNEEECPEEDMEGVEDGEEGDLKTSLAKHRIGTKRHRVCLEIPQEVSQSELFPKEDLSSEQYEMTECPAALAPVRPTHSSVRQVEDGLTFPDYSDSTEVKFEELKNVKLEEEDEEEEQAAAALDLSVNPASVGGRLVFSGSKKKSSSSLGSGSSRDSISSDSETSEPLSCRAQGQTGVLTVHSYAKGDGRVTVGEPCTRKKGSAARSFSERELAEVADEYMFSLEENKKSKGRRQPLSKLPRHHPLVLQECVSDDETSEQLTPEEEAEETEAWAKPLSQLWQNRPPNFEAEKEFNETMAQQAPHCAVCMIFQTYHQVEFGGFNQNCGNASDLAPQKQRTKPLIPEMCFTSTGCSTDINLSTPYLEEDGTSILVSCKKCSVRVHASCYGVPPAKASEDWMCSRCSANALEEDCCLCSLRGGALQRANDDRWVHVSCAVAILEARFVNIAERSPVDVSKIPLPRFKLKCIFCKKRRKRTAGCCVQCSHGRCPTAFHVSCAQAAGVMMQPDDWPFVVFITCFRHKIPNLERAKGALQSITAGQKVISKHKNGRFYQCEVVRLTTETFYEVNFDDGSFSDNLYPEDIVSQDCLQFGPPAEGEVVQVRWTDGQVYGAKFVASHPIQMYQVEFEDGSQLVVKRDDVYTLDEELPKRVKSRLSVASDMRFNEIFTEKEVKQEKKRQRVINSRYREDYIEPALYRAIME
Structure (SMILES),"activity change, negative = inhibition",Potency
C#Cc1ccc(CN2CCC(Oc3ccc(C(=O)NCc4ccccn4)cc3)CC2)cc1,inactive: -31.9%,
O=C1CC(c2ccccc2)=NN1c1ccccc1,,"inconclusive: 20 µM [inhibitor, full curve]"
CCN1C(=O)/C(=C/c2cccs2)SC1=Nc1ccc(OC)cc1,,"inconclusive: 50.1 µM [inhibitor, partial curve]"
O=C(O)COc1ccccc1/C=N/NC(=O)c1cc(-c2ccc(F)cc2)nc2ccccc12,,"inconclusive: 35.5 µM [inhibitor, single point]"
Cc1ccc2sc(N(CCCN(C)C)C(=O)c3nc4ccccc4s3)nc2c1C,inactive: -33.8%,
CC(=O)c1cccc(NC(=O)c2csc3c2CCCCC3)c1,,"inconclusive: 11.2 µM [inhibitor, partial curve]"
CN1CCc2c(sc3c2c(=O)n(-c2ccccc2)c2n[nH]c(=S)n32)C1,,active: 39.8 µM
Cc1cc(-c2ccc(C)c(S(=O)(=O)NCCCN3CCN(c4ccccc4)CC3)c2)on1,,"inconclusive: 31.6 µM [inhibitor, partial curve]"
O=[N+]([O-])c1cccc(/C=N/N2CCN(Cc3ccccc3)CC2)c1,,"inconclusive: 56.2 µM [inhibitor, partial curve]"
COc1ccc(C(c2oc(CO)cc(=O)c2O)c2oc(CO)cc(=O)c2O)cc1OC,,"inconclusive: 39.8 µM [inhibitor, single point]"
O=C(Cn1cnc2sc3c(c2c1=O)CCCC3)NCC(=O)Nc1c(F)cc(F)cc1Br,,"inconclusive: 44.7 µM [inhibitor, partial curve]"
CCOc1ccccc1CNC(=O)c1cc2oc3ccccc3c2n1CC,,"inconclusive: 3.98 µM [inhibitor, partial curve, poor fit]"
O=c1[nH]c2ccc(S(=O)(=O)Nc3cc(Cl)ccc3O)cc2o1,,"inconclusive: 56.2 µM [inhibitor, partial curve]"
CCOc1ccc(C(=O)NCC(=O)Nc2ccc3c(c2)OCO3)cc1OCC,,"inconclusive: 63.1 µM [inhibitor, partial curve, poor fit]"
COc1ccc(C2=NN(c3ccccc3)C(=O)/C2=C\c2ccc(O)c(OC)c2)cc1,,active: 15.8 µM
Cc1ccn2c(-c3csc(NCc4ccccc4)n3)c(C)nc2c1,,active: 56.2 µM
COc1cc(/C=C2/C(=O)N(c3ccc([N+](=O)[O-])cc3)N=C2N2CCOCC2)ccc1O,inactive: -7.35% [at 11.4 µM],
Cc1cccc(OCC(=O)N/N=C/c2cccn2C)c1,,"inconclusive: 35.5 µM [inhibitor, partial curve, poor fit]"
O=C(CCc1nc2ccccc2c(=O)[nH]1)N1CCN(S(=O)(=O)c2cc(Cl)ccc2Cl)CC1,,"inconclusive: 50.1 µM [inhibitor, partial curve]"
CCN(CC(=O)Nc1ccccc1C(F)(F)F)C(=O)C1CC(=O)N(Cc2ccccc2)C1 (stereo unspecified),inactive: -4.14%,
O=c1oc2ccc(NS(=O)(=O)c3cccc4cccnc34)cc2s1,inactive: -24.5%,
Cc1ccc(-c2nc3scc(CCNS(=O)(=O)c4c(C)noc4C)n3n2)cc1,inactive: -6.49%,
N#CC1=C(N)NC(SCc2ccccc2)=C(C#N)C12CCCCC2,,"inconclusive: 50.1 µM [inhibitor, partial curve]"

Structure (SMILES),"activity change, negative = inhibition",Potency
O=c1c(O)c(-c2ccc(O)cc2)oc2cc(O)cc(O)c12,,"inconclusive: 79.4 µM [inhibitor, partial curve]"
O=Cc1c(NCCN2CCCC2)c2ccccc2[nH]c1=O,,"inconclusive: 89.1 µM [inhibitor, single point]"
CN1CCN(CCNC(=O)c2ccc3nc(-c4ccc(F)cc4)c(-c4ccc(F)cc4)nc3c2)CC1,,"inconclusive: 56.2 µM [inhibitor, partial curve]"
O=C(NC(=S)NNC(=O)c1ccccc1O)c1cccc([N+](=O)[O-])c1,,active: 79.4 µM
COc1ccccc1NC(=O)c1ccc2nc(N3C(=O)CCC3=O)sc2c1,inactive: -18%,
CCC(C)NC(=O)c1ccc(Cl)c(S(=O)(=O)Nc2ccccc2N2CCOCC2)c1 (stereo unspecified),inactive: -14%,
O=C(c1cnc(N2CCCCC2)c2ccccc12)N1CCN(c2ccc(F)cc2)CC1,,"inconclusive: 44.7 µM [inhibitor, partial curve]"
N#CC(C#N)=Cc1cc2ccccc2nc1N1CCCCC1,,"inconclusive: 35.5 µM [inhibitor, full curve]"
N#Cc1nc(COc2ccccc2F)oc1NCc1ccc(F)cc1,inactive: -30.5%,
CN(C)CCCN(C(=O)c1sc2ccccc2c1Cl)c1nc2c(F)cccc2s1,,"inconclusive: 22.4 µM [inhibitor, full curve, poor fit]"
COc1cc2nc(N3CCN(C(=O)C4COc5ccccc5O4)CC3)nc(N)c2cc1OC (stereo unspecified),inactive: -15.1%,
Cc1cc(Br)ccc1NC(=O)C(NS(=O)(=O)c1cccs1)c1ccccc1 (stereo unspecified),inactive: 7.85%,
COc1ccc(C2=NS(=O)(=O)N(C)C(C(=O)Nc3ccc4c(c3)OCO4)=C2)cc1OC,,"inconclusive: 28.2 µM [inhibitor, full curve]"
Cc1cccc(Cn2c(C)c(C)c3cc(C(=O)NCCN4CCOCC4)ccc32)c1,,active: 50.1 µM
CC(c1ccc(F)cc1)n1c(-c2cccs2)n[nH]c1=S (stereo unspecified),,"inconclusive: 20 µM [inhibitor, single point]"
CCn1c(C)c(C)c2cc(C(=O)NC3CCCCCC3)ccc21,,"inconclusive: 7.08 µM [inhibitor, partial curve]"
CCC(C)C(Nc1ccc(C(=O)OC)cc1[N+](=O)[O-])C(=O)OC (stereo unspecified),,"inconclusive: 79.4 µM [inhibitor, partial curve]"
CSc1ccc(C(=O)N2CCC(CCC(=O)NCc3ccc(F)cc3)CC2)cc1,inactive: -1.39%,
COC(=O)c1sccc1NC(=O)CN(C)NS(=O)(=O)c1ccc(Cl)cc1,inactive: -30.9%,
CC(NC(=O)c1ccco1)C1COc2ccccc2O1 (stereo unspecified),,active: 56.2 µM
Cc1cc(SCC(=O)NCCN2C(=O)CSC2=O)nc2c(C)cccc12,inactive: -3.85%,
COc1ccc(-c2nnc(OCc3nc4ccccc4n3C)c3ccccc23)cc1,,active: 50.1 µM
Nc1ccc(N2CCN(C(=O)c3ccco3)CC2)cc1,,"inconclusive: 79.4 µM [inhibitor, partial curve] and inconclusive: 63.1 µM [inhibitor, partial curve]"

# From PubChem BioAssay AID504339 (National Center for Advancing Translational Sciences (NCATS), 2011)
